The results in this text go back to PubChem BioAssay (NCI).

Several values for one entry are separate records, joined by “and”; a condition that tells them apart may be missing. Equal values may be shown once.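 A five-concentration, 48-hour dose response in 96-well plates underlies each endpoint, interpolated linearly between surrounding concentrations. At the GI50, growth is halved. Definition used: TGI = concentration required for complete inhibition of growth.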

The subject of the assay is NCI-H322M lung. Description: NCI anticancer screen, dose series, 48 h.
Consider `CC(=O)OCc1cc[c]([Hg][Cl])o1`, for which the GI50 is 19.5 µM and the TGI was determined as 46.8 µM.

The compound `O=C(C#Cc1ccccc1)Nc1ccccc1CC(c1c[nH]c2ccccc12)c1c[nH]c2ccccc12` registered a TGI of over 100 µM.

Consider `CC(C)C(C=O)C(O)(C(F)(F)F)C(F)(F)F` (stereo not given), for which the TGI is over 100 µM.

Turning to `O=C(Nc1c(Cl)cccc1Cl)Oc1cccc2cccnc12`, the GI50 was 5.11 µM and the TGI was over 100 µM.

On to `CCCC(CCC(=O)O)(CCC(=O)O)[N+](=O)[O-]`, for which the TGI was over 100 µM.

With `Cc1ccccc1N=C(c1ccccc1)C1C(=O)c2ccccc2C1=O`, the GI50 is 2.08 µM and the TGI is 22.7 µM.

`COC(=O)/C(=C1\OC(=O)C(c2ccc(Cl)cc2)=C1O)c1ccc(Cl)cc1` had a TGI of over 100 µM.

`S=C1NC(c2ccccc2)NC(c2ccccc2)S1` (stereo not given): the TGI was over 100 µM.

As for `Cc1cc(C2CC(O)C(CO)O2)c(Br)cc1Br` (stereo not given), the GI50 was over 100 µM and the TGI was over 100 µM.

In the case of `C[C@]12CC[C@@H]3c4cc(C=O)c(OCc5ccccc5)cc4CC[C@H]3[C@@H]1CCC2OCc1ccccc1` (stereo not given in full), the TGI was over 100 µM.

For the compound `Cc1cc(NCCCCCCCCNc2cc(C)nc3cc(N(C)C)ccc23)c2ccc(N(C)C)cc2n1`, the TGI amounted to 26.2 µM.

With `COC1C[C@H](O[C@@H]2C[C@H](O[C@@H]3C[C@H](O[C@@H]4C(=O)c5c(cc6cc(O[C@H]7C[C@@H](O[C@H]8C[C@@H](O)[C@H](O)C(C)O8)[C@H](O)C(C)O7)c(C)c(O)c6c5O)C[C@H]4C(OC)C(=O)[C@@H](O)[C@@H](C)O)OC(C)[C@H]3O)OC(C)[C@@H]2O)OC(C)[C@@H]1O` (stereo not given in full), the GI50 was 0.0889 µM and the TGI turned out to be 15.8 µM.

In the case of `COc1cc(-c2cc(-c3ccc(Nc4nc(Nc5ccc(Cl)cc5)nc(Nc5ccc(Cl)cc5)n4)cc3)no2)cc(OC)c1OC`, the GI50 is 10.8 µM and the TGI was over 100 µM.

Regarding `COc1c(C(=O)CC2c3c(cc4oc(C)cc(=O)c4c3OC)OC(=N)C2c2nc3ccccc3[nH]2)c(O)c(OC)c2occc12` (stereo not given), the TGI was over 100 µM.

`Cc1[nH]c(-c2ccccc2)c(O)c1C(=O)OC1CC(C)CCC1C(C)C` (stereo not given) came in with a TGI of 30.1 µM.

In turn, `CCn1c(C)nc([N+](=O)[O-])c1Sc1ncc[nH]1` had a TGI of over 100 µM.

Take `Cc1cc(C(=O)NOCCO)c(Nc2ccc(I)cc2F)n(C)c1=O`: the GI50 was 0.0408 µM and 0.0214 µM; the TGI is over 100 µM.

On to `COC(=O)C1(N2CCOCC2)CCC([C@@H](c2ccccc2)C(C)[N+](=O)[O-])C1` (stereo not given in full), for which the TGI is over 100 µM.

On to `COc1cc2ccnc3c2c(c1OC)N(C)C=C3`, for which the TGI turned out to be 48.6 µM.

For the compound `[N-]=[N+]=NCCCn1c2c(c3ccccc3c1=O)C(=O)c1cc3c(cc1-2)OCO3`, the GI50 is 69.4 µM and the TGI is over 100 µM.

`O=C(NNC(=O)/C(=C/c1cccc([N+](=O)[O-])c1)NC(=O)c1ccccc1)Nc1ccc(Cl)cc1` had a TGI of 30.4 µM.

Regarding `CCN(CC)CCNC(=O)C1COc2ccc(-c3cc(=O)c4ccccc4o3)cc2O1` (stereo not given), the TGI was found to be 38.1 µM.

For `Nc1ccc2ncc(NCc3ccc(F)cc3)nc2c1`, the TGI is over 100 µM.

`O=C(Nc1ccc(-c2cn3ccccc3n2)cc1)c1cc(Br)ccc1O` came in with a TGI of over 100 µM.

Consider `C/C(COc1ccccc1)=N\NC(N)=S`, for which the TGI was over 100 µM.

With `CN1c2cccc[c]2[Sn]([CH3])([CH3])[c]2ccccc21`, the GI50 is under 0.0126 µM and the TGI was 0.0651 µM.

Turning to `Cc1ccc(C2=C(c3ccccc3)C(O)(c3ccccc3)C(c3ccccc3)=C2c2ccc(C)cc2)cc1`, the TGI was over 100 µM.

As for `C/C=C1/CN2CCC34c5ccccc5N5C(=O)C(C6CC78c9ccccc9N9C(=O)C=CC(C%10CC7N6C/C%10=C/C)C98)=CC(C1CC23)C54` (stereo not given), the GI50 is 10.8 µM; the TGI is 13.7 µM and 22.9 µM.

On to `Cn1cc(-c2nc(-c3c[nH]c4ccccc34)cs2)c2cccnc21`, for which the GI50 was 23.4 µM and the TGI was over 100 µM.

For the compound `CC1(/C=C/c2ccc(-c3ccccc3)cc2)CCn2cnc3ncnc(c32)N1O` (stereo not given), the GI50 was 0.231 µM and the TGI amounted to 23.8 µM.

`Clc1cc2ns[s+]c2cc1Cl`: the TGI is over 100 µM.

`CC1NCCC(CC(=O)O)C1CC(=O)O` (stereo not given) had a TGI of over 100 µM.

Turning to `Nc1ncnc2c1ncn2Cc1ccc(CCl)cc1`, the GI50 was 17.8 µM and the TGI turned out to be 38.6 µM.

`Clc1cccc(C=NC23CC4CC(CC(C4)C2)C3)c1Cl` returned a TGI of over 10 µM.

`C#CCn1c(=O)c2cc(OC)c(OC)cc2n(CC#C)c1=O` returned a TGI of over 10 µM.

As for `CC(=O)Nc1ccc(S(=O)(=O)Nc2cnc3ccccc3n2)cc1`, the TGI is over 100 µM.

Regarding `c1ccc2cc(Cn3c(-c4cccc5ccccc45)[n+](Cc4ccc5ccccc5c4)c4c5ccccc5c5ccccc5c43)ccc2c1`, the GI50 is 0.416 µM and the TGI came out at 1.62 µM.

`COc1ccc(/C=N/NC(=O)NCCNCCO)cc1` had a TGI of over 100 µM.

In the case of `Cn1c(SCc2ccc([N+](=O)[O-])cc2)nnc1C12CC3CC(CC(C3)C1)C2`, the TGI is over 10 µM.

In turn, `O=[N+]([O-])c1cc(-c2ccc([As](=O)(O)O)cc2)ccc1[As](=O)(O)O` returned a TGI of over 100 µM.

For `O=C(/C=C/c1cc2ccccc2[nH]c1=O)c1ccc(O)cc1`, the GI50 is 3.98 µM and the TGI was determined as 16.8 µM.

For the compound `Cc1ccc(S(=O)(=O)N(CC(O)COc2ccccc2)c2ccccc2Cl)cc1` (stereo not given), the TGI is 41.7 µM.

On to `CCOC1=C2N=C(C(CC)c3ccc(F)cc3)N=C2C(=O)c2ccccc21` (stereo not given), for which the TGI was over 100 µM.

For `CCCCCCCCC/C=C1/CC(CO)(COC(=O)C2CCCCC2)OC1=O` (stereo not given), the TGI is over 100 µM.

Turning to `O=Cc1cc2sc(C=O)cc2s1`, the TGI was over 100 µM.

Compound `COC(=O)c1cc(NC(=O)Cn2c3ccccc3c3ccccc32)cn1C` gave a TGI of over 100 µM.

As to `O=C(COc1ccc(Cl)cc1Cl)NNc1ccc([N+](=O)[O-])cc1`, the GI50 is 52.6 µM and the TGI is over 100 µM.

`CS(=O)(=O)Nc1cc(-c2ccc3ncnc(Nc4ccc(OCc5ccccn5)c(Cl)c4)c3c2)cnc1Cl`: the GI50 is 0.468 µM and the TGI stood at 3.58 µM.

In turn, `COc1ccc(C2[C@@H](Cl)C(=O)N2c2ccc(OC)cc2)cc1` (stereo not given in full) registered a TGI of over 100 µM.

Consider `COc1ccc(CNCCN2C(=O)c3ccc4c5c(ccc(c35)C2=O)C(=O)N(CCNCc2ccc(OC)c(OC)c2OC)C4=O)c(OC)c1OC`, for which the GI50 was 0.182 µM and the TGI worked out at 1.38 µM.

In turn, `CCOP(=O)(OCC)C(Cc1cn(S(=O)(=O)c2ccc(C)cc2)cn1)C(=O)O` (stereo not given) registered a TGI of over 100 µM.

With `CN(N=O)N1C(=O)SCC(c2ccccc2)(c2ccccc2)C1=O`, the TGI is over 100 µM.

`COc1cc2c(cc1OC)C/C(=N\O)c1cc(OC)c(OC)cc1/C=C\2` registered a TGI of over 79 µM.

As to `O=C(Cn1cc(I)c(C(=O)NCC(O)CO)n1)NCC(O)CO` (stereo not given), the TGI was over 100 µM.

Regarding `C=C1C(=O)OC2C=C(C)CC3C=C(CCC=C(C)CCC12)C(=O)O3` (stereo not given), the TGI was 115 µM.

Consider `O=C(NC1CCCCC1)N1CCNC1=S`, for which the TGI is over 100 µM.

Turning to `C=c1c2ccccc2oc2nc3[nH]c(N)c(C#N)c(N)c3c(=N)c12`, the TGI was over 100 µM.

Take `C#CCN(Cc1ccc2nc(-c3ccccc3)c(Cl)nc2c1)c1ccc(Cl)c(Cl)c1`: the TGI was over 100 µM.

In turn, `Nc1nc(Cl)cc(Oc2ccc(Cl)cc2)n1` showed a TGI of over 100 µM.

Turning to `O=C1NC(=O)/C(=C/c2ccc3nccc(-c4ccncc4)c3c2)S1`, the GI50 was 0.227 µM and the TGI turned out to be 1.34 µM.

With `O=C(N/N=C/c1ccc(O)cc1)NNCCO`, the TGI is over 100 µM.

In turn, `C=C1C(O)C2OC(=O)C(=C)C2C(OC(=O)/C(C)=C/C)CC2(C)OC2C2OC12` (stereo not given) yielded a TGI of 40.5 µM.

For `C[C@H]1O[C@@H](O[C@H]2[C@@H](O)C[C@H](O[C@H]3[C@@H](O)C[C@H](O[C@H]4CC[C@]5(C)C6CC[C@]7(C)[C@@H](C8=CC(=O)OC8)CC[C@]7(O)C6CC[C@@H]5C4)O[C@@H]3C)O[C@@H]2C)C[C@H](O)[C@@H]1O` (stereo not given in full), the GI50 was 0.0188 µM and the TGI was determined as 0.0901 µM.

In the case of `COc1cc2cc(C(=O)Nc3ccccc3)c(N)nc2cc1OC`, the GI50 is over 100 µM and the TGI is over 100 µM.

As for `OC(CBr)C(O)C(O)C(O)CBr` (stereo not given), the TGI is over 100 µM.

For the compound `CCN1C(=O)N(CC)C2C1NN=c1s/c(=C\c3ccc(Br)cc3)c(=O)n12` (stereo not given), the GI50 is 0.738 µM and the TGI is over 100 µM.

As for `O=C1C(Nc2ccc(S(=O)(=O)Nc3cnc4ccccc4n3)cc2)=CC(=Nc2ccc(S(=O)(=O)Nc3cnc4ccccc4n3)cc2)c2ccccc21`, the TGI is 31.7 µM.

The compound `Cn1c(=Nc2ccccc2[N+](=O)[O-])sc2ccccc21` returned a TGI of over 100 µM.

For `CCN(Cc1c(F)cccc1C(F)(F)F)c1ccc(CO)c(Cl)c1`, the GI50 is 15.5 µM and the TGI was 29.4 µM.

Regarding `Cc1c(-c2c(F)cc(C(N)=O)c3[nH]c4c(c23)CC[C@H](C(C)(C)O)C4)cccc1-n1c(=O)c2cccc(F)c2n(C)c1=O`, the GI50 was 4.82 µM and the TGI was over 100 µM.

Turning to `COc1cccc2c1CCc1sc(CN3CCN(C)CC3)nc1-2`, the TGI was over 100 µM.

Take `CN1CCN(CCCn2c3c(sc4ncccc43)c(=O)n3nnc(-c4ccccc4)c23)CC1`: the GI50 is 1.74 µM and the TGI stood at 3.48 µM.

On to `CC(=O)[C@H]1CC[C@@H]2[C@]1(C)CC=C1[C@]23C=C[C@]2(C[C@@H](O)CC[C@]12C)C(C(=O)O)C3C(=O)O` (stereo not given in full), for which the TGI is over 100 µM.

Compound `COc1ccc2c(c1)C(=O)CC(C(N)=O)C2` (stereo not given) gave a TGI of over 100 µM.

Turning to `Cc1cc(S(=O)(=O)Nc2nc3ccccc3s2)c(SCc2ccccc2)cc1Cl`, the GI50 is 13.8 µM and the TGI was 43.8 µM.

Take `NC(=O)C1CCCN1Cc1ccc2c(c1)OCO2` (stereo not given): the TGI was over 100 µM.

The compound `CN(CCCNC(=O)c1[nH]nc2c1ccc1ccccc12)CCCNC(=O)c1[nH]nc2c1ccc1ccccc12` returned a TGI of 35.5 µM.

`Nc1cc2c3ccccc3ccc2c2ccccc12`: the GI50 was over 100 µM and the TGI was over 100 µM.

On to `O=C(Nc1n[nH]c2cc(-c3ccc(F)cc3)ccc12)C1CC1`, for which the GI50 was 13.2 µM and the TGI is over 25 µM.

The compound `COc1ccc(-c2oc(C=Nc3ccccc3)c([N+](=O)[O-])c2-c2ccc(OC)c(OC)c2)cc1OC` yielded a TGI of over 100 µM.

As for `CC(=O)Nc1ccc2c(c1)[nH]c(=O)c1cc(NC(C)=O)ccc12`, the GI50 is over 100 µM and the TGI was over 100 µM.
